According to paper PMC4336329 (PLoS ONE, 2015):
The whole screen tested about 310,000 compounds, of which about 14,000 (4.5%) showed an effect of 50% or more. The effect is printed as a negative number. The list shows a part of the results.
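Also: peak tail current of the secondary pulse compared with the same well before compound.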

Each compound was assayed against human ether-à-go-go-related gene (hERG) potassium channel (human, UniProt Q12809) (assay: primary screen, population patch clamp on CHO cells stably expressing hERG).
Sequence of human ether-à-go-go-related gene (hERG) potassium channel (Q12809 whole entry, looked up): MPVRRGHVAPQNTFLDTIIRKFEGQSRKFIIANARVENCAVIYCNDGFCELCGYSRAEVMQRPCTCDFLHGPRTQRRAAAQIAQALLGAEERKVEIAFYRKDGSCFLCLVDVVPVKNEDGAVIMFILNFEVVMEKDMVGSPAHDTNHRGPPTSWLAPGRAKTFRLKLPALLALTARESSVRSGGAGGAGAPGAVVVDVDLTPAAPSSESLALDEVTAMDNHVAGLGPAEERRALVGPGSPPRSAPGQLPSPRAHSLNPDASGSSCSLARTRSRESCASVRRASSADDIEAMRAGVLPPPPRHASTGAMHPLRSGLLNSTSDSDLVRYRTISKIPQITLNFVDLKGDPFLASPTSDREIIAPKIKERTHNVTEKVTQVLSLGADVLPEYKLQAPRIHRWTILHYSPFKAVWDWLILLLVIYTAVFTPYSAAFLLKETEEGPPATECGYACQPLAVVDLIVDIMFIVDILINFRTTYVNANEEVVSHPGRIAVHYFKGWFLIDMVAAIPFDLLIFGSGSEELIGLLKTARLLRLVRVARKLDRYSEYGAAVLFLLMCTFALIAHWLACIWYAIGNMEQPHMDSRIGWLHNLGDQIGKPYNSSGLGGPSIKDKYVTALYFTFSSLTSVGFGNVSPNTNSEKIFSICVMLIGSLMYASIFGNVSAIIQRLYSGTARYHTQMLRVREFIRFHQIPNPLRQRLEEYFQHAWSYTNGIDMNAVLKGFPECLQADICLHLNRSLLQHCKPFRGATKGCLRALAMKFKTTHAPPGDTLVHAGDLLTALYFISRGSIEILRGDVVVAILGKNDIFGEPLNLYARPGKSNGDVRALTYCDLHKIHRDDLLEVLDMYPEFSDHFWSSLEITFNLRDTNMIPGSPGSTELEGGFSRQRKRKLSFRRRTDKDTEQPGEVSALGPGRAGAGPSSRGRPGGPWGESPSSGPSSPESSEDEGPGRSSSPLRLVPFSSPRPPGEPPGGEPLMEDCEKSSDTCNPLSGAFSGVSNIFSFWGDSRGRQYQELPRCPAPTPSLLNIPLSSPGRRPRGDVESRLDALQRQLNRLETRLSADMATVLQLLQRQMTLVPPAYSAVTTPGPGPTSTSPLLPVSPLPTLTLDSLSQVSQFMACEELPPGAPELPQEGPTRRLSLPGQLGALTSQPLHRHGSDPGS
`O=C(N/N=C/c1ccccc1O)c1ccncc1` was tested, and the “hERG current change (%, negative = inhibition) at 10uM” value was 2.66%. `O=C(CCc1nc2sc3c(c2c(=O)[nH]1)CCCC3)N1CCN(c2ccccc2)CC1` was tested, and the “hERG current change (%, negative = inhibition) at 10uM” value was 2.7%. `COc1ccc(OC)c(-n2nnnc2SCC(=O)NCCc2ccccc2)c1` was tested, and the “hERG current change (%, negative = inhibition) at 10uM” value was -20.3%. `N#CC1=C(N)c2ccccc2CC12CCCCC2` was tested, and the “hERG current change (%, negative = inhibition) at 10uM” value was 7.03%. In the case of `COc1ccc(C(=O)n2nc(-c3ccccc3)nc2N)cc1OC`, the “hERG current change (%, negative = inhibition) at 10uM” value is reported as 16.6%. `COC(=O)C1=C(C)N(C)C(=O)NC1c1ccsc1` (stereo not drawn) was tested, and the “hERG current change (%, negative = inhibition) at 10uM” value was 11.6%. `CCN(CC(=O)Nc1ccc(OC)cc1)C(=O)c1ccc(Cl)c(S(=O)(=O)N2CCCC2)c1` was tested, and the “hERG current change (%, negative = inhibition) at 10uM” value was -18.1%. In the case of `COc1ccc(/C=C(\C#N)C(=O)OCC(=O)N2CC(C)OC(C)C2)cc1` (stereo not drawn), the “hERG current change (%, negative = inhibition) at 10uM” value is reported as 14.6%. For `COc1ccc(NC(=O)CN2CCN(S(=O)(=O)N3CCCCCC3)CC2)cc1`, the “hERG current change (%, negative = inhibition) at 10uM” value was -71.7%. `CS(=O)(=O)c1ccc(C(=O)N(CCc2ccccc2)Cc2ccccc2)cc1` was tested, and the “hERG current change (%, negative = inhibition) at 10uM” value was 5.56%. For `CNS(=O)(=O)c1cccc2cccnc12`, the “hERG current change (%, negative = inhibition) at 10uM” value was 11.1%. `CC(=O)N1CCc2cc(S(=O)(=O)CCC(=O)NCc3ccc(C)o3)ccc21` was tested, and the “hERG current change (%, negative = inhibition) at 10uM” value was 15%. For `C=CCN(C(=O)c1csnn1)C(C(=O)NCc1ccccc1)c1c(F)cccc1Cl` (stereo not drawn), the “hERG current change (%, negative = inhibition) at 10uM” value was -16.9%. In the case of `Cc1ccc(OCCSc2nc3ccccc3n2CC(=O)O)c(C(C)C)c1`, the “hERG current change (%, negative = inhibition) at 10uM” value is reported as 2.95%. `O=C(c1ccc(N2C(=O)C3C4c5ccccc5C(c5ccccc54)C3C2=O)cc1)N1CCOCC1` (stereo not drawn) was tested, and the “hERG current change (%, negative = inhibition) at 10uM” value was 2.25%. `Cc1ccc(-n2[nH]c(C)c(/C=N/c3ccccn3)c2=O)cc1` was tested, and the “hERG current change (%, negative = inhibition) at 10uM” value was 2.58%. `COc1ccc(/C=N/NC(=O)c2ccc(O)cc2O)cc1CSc1ccccn1` was tested, and the “hERG current change (%, negative = inhibition) at 10uM” value was 0.136%. `CCc1ccccc1NC1=NCC(=O)N1C1CCCCC1` was tested, and the “hERG current change (%, negative = inhibition) at 10uM” value was -1.39%. `Cn1c(CSCC(=O)Nc2ccccc2)nnc1SCc1ccccc1` was tested, and the “hERG current change (%, negative = inhibition) at 10uM” value was -6.94%. `Cc1[nH]c(C)c(S(=O)(=O)NCc2ccco2)c1C(=O)N1CCCCC1` was tested, and the “hERG current change (%, negative = inhibition) at 10uM” value was 7.16%. With `O=C(N/C(=C/c1cccnc1)C(=O)N1CCOCC1)c1ccccc1F` the “hERG current change (%, negative = inhibition) at 10uM” value was -1.08%. `Cc1cc(C)c(S(=O)(=O)N2CCN(c3ccccc3)CC2)c(C)c1` was tested, and the “hERG current change (%, negative = inhibition) at 10uM” value was 16.5%. For `S=c1[nH]nc(-c2ccccc2Cl)n1Cc1ccccc1`, the “hERG current change (%, negative = inhibition) at 10uM” value was 7.24%. In the case of `COc1ccccc1CNC(=O)C(=O)NCC1OCCN1S(=O)(=O)c1ccccc1` (stereo not drawn), the “hERG current change (%, negative = inhibition) at 10uM” value is reported as 0.173%. In the case of `COc1ccc(-n2nc(C(=O)NCC(=O)NC3CCCC(C)C3C)c3ccccc3c2=O)c(OC)c1` (stereo not drawn), the “hERG current change (%, negative = inhibition) at 10uM” value is reported as 12.8%. `CN1C2C=C(N(CCc3ccccc3)C(=O)c3ccc(Cl)cc3)CC1CC2.Cl` (stereo not drawn) was tested, and the “hERG current change (%, negative = inhibition) at 10uM” value was -74.8%. In the case of `O=C(c1ccco1)N1CCN(S(=O)(=O)c2cccs2)CC1`, the “hERG current change (%, negative = inhibition) at 10uM” value is reported as -22.8%. For `CCOc1ccc(NC(=O)CN(C)C(=O)Cn2c(=O)cnc3ccccc32)cc1OCC`, the “hERG current change (%, negative = inhibition) at 10uM” value was 19.7%. For `Cc1cc(C)n2nc(SCC(=O)N(C)c3ccccc3)nc2n1`, the “hERG current change (%, negative = inhibition) at 10uM” value was 8.2%. With `Cc1cc([N+](=O)[O-])ccc1NC(=O)/C=C/c1cccs1` the “hERG current change (%, negative = inhibition) at 10uM” value was -12.8%. With `CN(C)S(=O)(=O)c1ccccc1C#N` the “hERG current change (%, negative = inhibition) at 10uM” value was -4.08%. In the case of `CCc1nc2ccccc2c(=O)n1NCCc1ccccc1`, the “hERG current change (%, negative = inhibition) at 10uM” value is reported as -21.2%. In the case of `CCOC(=O)CSc1nc2ccccc2c(=O)n1CC(C)C`, the “hERG current change (%, negative = inhibition) at 10uM” value is reported as -35.3%. `Cc1ccnc(NC(=O)c2ccc(S(=O)(=O)N3CCCCCC3)cc2)c1` was tested, and the “hERG current change (%, negative = inhibition) at 10uM” value was 6.28%. In the case of `COc1cccc(/C=N/NC(=O)C(=O)N2CCCCCC2)c1OC`, the “hERG current change (%, negative = inhibition) at 10uM” value is reported as 3.52%. For `O=C(Nc1cccc(C(F)(F)F)c1)c1cc(-c2cccs2)on1`, the “hERG current change (%, negative = inhibition) at 10uM” value was 3.81%. With `CCCCN(C(=O)c1ccc(N2CCCC2=O)cc1)c1c(N)n(CCC)c(=O)[nH]c1=O` the “hERG current change (%, negative = inhibition) at 10uM” value was 11.6%. In the case of `CCc1[nH]nc2c1C(c1cccnc1)C(C#N)=C(N)O2` (stereo not drawn), the “hERG current change (%, negative = inhibition) at 10uM” value is reported as -5.55%. For `CCC1CCCCN1C(=O)CSc1nnc2nc(C)cc(C)n12` (stereo not drawn), the “hERG current change (%, negative = inhibition) at 10uM” value was 5.26%. With `O=C(CCCSc1nc2ccccc2[nH]1)N1CCN(c2ccccc2)CC1` the “hERG current change (%, negative = inhibition) at 10uM” value was -60.2%. `COc1cc(C(=O)Nc2ccc(NC(=O)c3ccccc3Cl)nc2)cc(OC)c1OC` was tested, and the “hERG current change (%, negative = inhibition) at 10uM” value was 5.54%. In the case of `CN1CCC(N(C)C(=O)c2cccc(S(=O)(=O)N3CCOCC3)c2)CC1.Cl`, the “hERG current change (%, negative = inhibition) at 10uM” value is reported as 3.25%. For `Cc1ccc(N(C)C(=O)c2cc(S(=O)(=O)N3CCCCC3)c[nH]2)cc1`, the “hERG current change (%, negative = inhibition) at 10uM” value was 4.34%. For `Cn1c(=O)n(C)c2cc([N+](=O)[O-])c(N3CCN(C(=O)c4cccc(F)c4)CC3)cc21`, the “hERG current change (%, negative = inhibition) at 10uM” value was -32.7%. `COc1ccc2cc(C(c3nnnn3C(C)(C)C)N3CCSCC3)c(=O)[nH]c2c1` (stereo not drawn) was tested, and the “hERG current change (%, negative = inhibition) at 10uM” value was -31.7%. In the case of `CCN(CC)CC(=O)n1c2c(c3ccccc31)CCCC2`, the “hERG current change (%, negative = inhibition) at 10uM” value is reported as -34.2%. For `O=C(Cc1ccc(Cl)cc1)Nc1ccc(Br)cn1`, the “hERG current change (%, negative = inhibition) at 10uM” value was -1.7%. `CC(Sc1nnc(CN2CCCC2)n1Cc1ccccc1)C(=O)Nc1ccccc1` (stereo not drawn) was tested, and the “hERG current change (%, negative = inhibition) at 10uM” value was -43.1%. In the case of `CCC(=O)N1CCNC(=O)C1CC(=O)Nc1ccc(C)c(Cl)c1` (stereo not drawn), the “hERG current change (%, negative = inhibition) at 10uM” value is reported as 1.09%. `O=C(CCC1=NS(=O)(=O)c2ccccc2N1)NC1CCCCCCC1` was tested, and the “hERG current change (%, negative = inhibition) at 10uM” value was 2.57%. For `COc1ccc(CNC(=O)COc2cc(O)c3c(c2)OC(C)(C)CC3=O)c(OC)c1`, the “hERG current change (%, negative = inhibition) at 10uM” value was -22.8%. `COC(=O)c1ccc(OCC(O)CN2CCOCC2)cc1` (stereo not drawn) was tested, and the “hERG current change (%, negative = inhibition) at 10uM” value was 15%. `S=C1NC[C@H](c2ccccc2)N1CCCCC1CCCCC1` was tested, and the “hERG current change (%, negative = inhibition) at 10uM” value was 17.5%. In the case of `CC(C)n1cnc2c(Nc3cccc(Cl)c3)nc(N(CCO)CCCO)nc21`, the “hERG current change (%, negative = inhibition) at 10uM” value is reported as -45.7%. With `CCOC(=O)C1CCCN(c2ncnc3c2cnn3-c2ccc(OC)cc2)C1` (stereo not drawn) the “hERG current change (%, negative = inhibition) at 10uM” value was -33.1%. With `COC(=O)CNC(=O)CSc1nc(N)cc(=O)[nH]1` the “hERG current change (%, negative = inhibition) at 10uM” value was -4.11%. `O=C(Cn1nc(-c2ccccc2)ccc1=O)NCc1ccc(F)cc1` was tested, and the “hERG current change (%, negative = inhibition) at 10uM” value was -17.6%.
